# Laboratory results: PubChem BioAssay (Tox21)
# Several values for one entry are separate records, joined by “and”; a condition that tells them apart may be missing. Equal entries are not always repeated. Activity calls are given as the source filed them. Unless noted, the call rests on the fitted dose curve; in most records, active means well fitted curve in the direction sought with a large enough effect in the repeat runs; inconclusive means weak or mixed curves; inactive means no such curve, though single readings can be large; an effect the other way counts as inactive or inconclusive.
# Legend:
# [1] = biological target: Androgen receptor (Homo sapiens) (UniProt P10275); experiment: qHTS assay to identify small molecule antagonists of the androgen receptor (AR) signaling pathway (AID 743035; active means well fitted inhibition curve with a large enough effect in the signal ratio in the repeat runs, not every such curve was filed as active; inconclusive means weak or mixed curves, or effect the other way; inactive means no such curve, though single readings can be large or run the other way; the % refers to the signal ratio; on activity change, negative = inhibition: on the % scale 0 is the no-effect control and ±100 the full control effect); conditions: HEK293 AR-UAS-bla, R1881-stimulated, beta-lactamase FRET, 16 h
# UniProt P10275, sequence (P10275 whole entry, looked up): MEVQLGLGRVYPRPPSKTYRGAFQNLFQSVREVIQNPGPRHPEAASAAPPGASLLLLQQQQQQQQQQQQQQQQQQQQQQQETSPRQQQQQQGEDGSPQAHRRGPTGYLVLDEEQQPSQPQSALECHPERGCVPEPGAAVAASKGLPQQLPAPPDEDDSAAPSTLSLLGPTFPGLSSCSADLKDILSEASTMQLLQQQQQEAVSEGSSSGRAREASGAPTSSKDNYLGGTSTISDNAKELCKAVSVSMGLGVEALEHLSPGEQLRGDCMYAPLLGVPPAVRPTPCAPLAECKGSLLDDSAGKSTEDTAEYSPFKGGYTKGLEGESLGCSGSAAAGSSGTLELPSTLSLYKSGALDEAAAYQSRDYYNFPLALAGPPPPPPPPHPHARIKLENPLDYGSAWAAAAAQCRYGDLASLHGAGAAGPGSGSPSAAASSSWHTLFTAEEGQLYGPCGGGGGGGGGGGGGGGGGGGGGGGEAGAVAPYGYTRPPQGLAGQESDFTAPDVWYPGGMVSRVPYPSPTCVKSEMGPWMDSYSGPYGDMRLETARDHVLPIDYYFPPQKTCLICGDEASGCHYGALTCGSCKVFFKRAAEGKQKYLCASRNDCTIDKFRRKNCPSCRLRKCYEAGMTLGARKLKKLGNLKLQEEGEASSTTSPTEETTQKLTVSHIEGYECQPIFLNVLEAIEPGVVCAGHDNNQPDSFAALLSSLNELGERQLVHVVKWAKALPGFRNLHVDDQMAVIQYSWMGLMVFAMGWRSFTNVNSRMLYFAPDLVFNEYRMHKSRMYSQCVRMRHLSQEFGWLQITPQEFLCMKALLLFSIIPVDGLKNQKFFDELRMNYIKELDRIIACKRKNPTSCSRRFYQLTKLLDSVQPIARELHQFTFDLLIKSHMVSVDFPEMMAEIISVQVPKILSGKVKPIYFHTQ
# Method in brief: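 Antagonism is scored as loss of R1881-driven beta-lactamase reporter expression in HEK293 cells carrying the reporter under a UAS element, after 16 h co-treatment at 37C and a 2 h room-temperature FRET substrate read.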
# [2] = biological target: Androgen receptor (Homo sapiens) (UniProt P10275); experiment: qHTS assay to identify small molecule agonists of the androgen receptor (AR) signaling pathway (AID 743036; active means well fitted activation curve with a large enough effect in the signal ratio in the repeat runs, with a control signal flat, not every such curve was filed as active; inconclusive means weak or mixed curves, or effect the other way; inactive means no such curve, though single readings can be large or run the other way; the % refers to the signal ratio; on activation: on the % scale 0 is the no-effect control and ±100 the full control effect); conditions: HEK293 AR-UAS-bla GripTite, beta-lactamase FRET ratio, 16 h; activation: at 62.4 µM (top of the series) unless noted
# Method in brief: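 Screening used 2,000 AR-bla HEK293 cells per well, treated 16 h at 37C with test compounds in DMSO alongside positive and DMSO-only controls; beta-lactamase activity was then read by LiveBLAzer B/G FRET fluorescence after 2 h at room temperature.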
# [3] = qHTS assay to identify small molecule antagonists of the androgen receptor (AR) signaling pathway using the MDA cell line - cell viability counter screen (AID 743041; further: nearly all actives have a fitted effect of over 45% in size); conditions: MDA-kb2 viability, CellTiter-Fluor, 16 h, cells co-treated with R1881 androgen agonist; viability change, negative = cytotoxic: at 70.3 µM (top of the series) unless noted
# Method in brief: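 MDA-kb2 AR-luc cells (MMTV-luciferase, AR/GR responsive) treated with compounds plus R1881 agonist for 16 h at 37C. CellTiter-Fluor added at 15.5 h; fluorescence read after 30 min in the same wells.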
# [4] = system: thyroid hormone receptor (rat, GH3 cells); experiment: qHTS assay to identify small molecule agonists of the thyroid receptor (TR) signaling pathway (AID 743066; calls by dose curve); conditions: GH3.TRE-Luc cells, TR agonist luciferase, 24 h; activation: at 83.9 µM (top of the series) unless noted
# [5] = qHTS assay to identify small molecule antagonists of the estrogen receptor alpha (ER-alpha) signaling pathway - cell viability counter screen (AID 743074; calls by dose curve;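 further: HEK293 cells carrying ER-alpha-UAS-bla reporter stimulated with 17beta-estradiol; nearly all actives have a fitted effect of over 45% in size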)
# [6] = qHTS assay to identify aromatase inhibitors - cell viability counter screen (AID 743084);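 further: cells stimulated with testosterone during compound exposure; nearly all actives have a fitted effect of over 55% in size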
# [7] = biological target: Peroxisome proliferator-activated receptor gamma (Homo sapiens) (UniProt P37231); experiment: qHTS assay to identify small molecule agonists of the peroxisome proliferator-activated receptor gamma (PPARg) signaling pathway (AID 743094; active means well fitted activation curve with a large enough effect in the signal ratio in the repeat runs, not every such curve was filed as active; inconclusive means weak or mixed curves, or effect the other way; inactive means no such curve, though single readings can be large or run the other way; the % refers to the signal ratio); conditions: HEK293H PPARg-UAS-bla, beta-lactamase FRET ratio, 17 h; activation: at 57 µM (top of the series) unless noted
# UniProt P37231, sequence (P37231 whole entry, looked up): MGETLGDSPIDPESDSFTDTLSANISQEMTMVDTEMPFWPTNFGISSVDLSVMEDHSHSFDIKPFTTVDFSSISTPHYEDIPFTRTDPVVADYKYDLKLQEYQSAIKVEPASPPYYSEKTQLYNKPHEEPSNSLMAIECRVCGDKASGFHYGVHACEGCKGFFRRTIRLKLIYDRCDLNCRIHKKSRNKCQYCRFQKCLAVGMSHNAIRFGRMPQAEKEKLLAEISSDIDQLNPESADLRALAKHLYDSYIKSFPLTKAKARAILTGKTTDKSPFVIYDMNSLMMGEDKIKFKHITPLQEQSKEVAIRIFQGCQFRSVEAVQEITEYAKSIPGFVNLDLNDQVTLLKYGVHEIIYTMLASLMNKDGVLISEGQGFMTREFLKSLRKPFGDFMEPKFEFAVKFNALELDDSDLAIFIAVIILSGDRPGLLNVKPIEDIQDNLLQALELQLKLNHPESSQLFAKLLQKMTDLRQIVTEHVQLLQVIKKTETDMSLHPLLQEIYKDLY
# Method in brief: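 Quantitative HTS agonist mode: stable HEK293H line with UAS-beta-lactamase reporter under PPARg control, 17 h compound exposure at 37C, fluorescence after 1 h FRET substrate loading at room temperature.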
# [8] = biological target: Peroxisome proliferator-activated receptor gamma (Homo sapiens) (UniProt P37231); experiment: qHTS assay to identify small molecule antagonists of the peroxisome proliferator-activated receptor gamma (PPARg) signaling pathway (AID 743191; calls by dose curve; further: nearly all actives have a fitted effect of over 30% in size; on ratio activity, negative = inhibition: on the % scale 0 is the no-effect control and ±100 the full control effect); conditions: HEK293H PPARg-UAS-bla, beta-lactamase ratio, antagonist, 17 h; ratio activity, negative = inhibition: at 62.6 µM (top of the series) unless noted
# Method in brief: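 GeneBLAzer PPARg UAS-bla HEK293H cells, 5 h post-plating, exposed to compounds 17 h at 37C. LiveBLAzer B/G FRET substrate added for 1 h at room temperature; beta-lactamase reporter read by fluorescence intensity.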
# [9] = biological target: Androgen receptor (Homo sapiens) (UniProt P10275); experiment: qHTS assay to identify small molecule agonists of the androgen receptor (AR) signaling pathway using the MDA cell line (AID 743040; further: nearly all actives have a fitted effect of over 20% in size); conditions: MDA-kb2 AR-luc cells, MMTV luciferase, 16 h; activity change: at 70.3 µM (top of the series), stronger effect = higher value
# Method in brief: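 MDA-kb2 breast carcinoma cells carrying MMTV-luciferase (responsive to AR and GR), plated 5 h then treated 16 h with compounds at 37C, 0% CO2. Read-out was ONE-Glo luminescence after 30 min at room temperature.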
# [10] = biological target: Androgen receptor (Homo sapiens) (UniProt P10275); experiment: qHTS assay to identify small molecule antagonists of the androgen receptor (AR) signaling pathway using the MDA cell line (AID 743042; further: nearly all actives have a fitted effect of over 55% in size)
# Method in brief: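 MDA-kb2 breast carcinoma cells carrying MMTV-luciferase (AR/GR responsive) were co-treated with compounds and the agonist R1881 for 16 h at 37C. Inhibition read as ONE-Glo luminescence; CellTiter-Fluor fluorescence measured in parallel for cytotoxicity.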
# [11] = biological target: Estrogen receptor (Homo sapiens) (UniProt P03372); experiment: qHTS assay to identify small molecule antagonists of the estrogen receptor alpha (ER-alpha) signaling pathway (AID 743069; active means well fitted curve in the direction sought with a large enough effect in the signal ratio in the repeat runs, not every such curve was filed as active; inconclusive means weak or mixed curves, or effect the other way; inactive means no such curve, though single readings can be large or run the other way; the % refers to the signal ratio); conditions: HEK293 ER-alpha-UAS-bla, beta-lactamase ratio, antagonist mode; activity, negative = inhibition: at 69.4 µM (top of the series)
# UniProt P03372, sequence (P03372 whole entry, looked up): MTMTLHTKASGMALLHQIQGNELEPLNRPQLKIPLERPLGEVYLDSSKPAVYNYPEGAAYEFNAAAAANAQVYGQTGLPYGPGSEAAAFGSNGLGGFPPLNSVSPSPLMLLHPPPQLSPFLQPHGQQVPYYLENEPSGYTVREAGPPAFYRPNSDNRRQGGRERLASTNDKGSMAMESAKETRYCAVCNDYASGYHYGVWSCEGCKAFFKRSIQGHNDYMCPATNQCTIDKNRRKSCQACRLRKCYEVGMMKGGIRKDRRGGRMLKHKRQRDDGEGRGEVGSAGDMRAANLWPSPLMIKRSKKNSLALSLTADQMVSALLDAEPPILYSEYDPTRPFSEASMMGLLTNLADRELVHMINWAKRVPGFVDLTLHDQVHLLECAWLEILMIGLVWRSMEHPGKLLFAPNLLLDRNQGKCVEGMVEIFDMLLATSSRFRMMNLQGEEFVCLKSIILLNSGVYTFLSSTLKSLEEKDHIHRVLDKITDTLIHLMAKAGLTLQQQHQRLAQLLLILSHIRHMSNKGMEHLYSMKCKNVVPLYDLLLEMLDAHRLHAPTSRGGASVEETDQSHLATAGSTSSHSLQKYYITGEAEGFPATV
# Method in brief: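 HEK293 ER-alpha-UAS-bla GripTite cells, held overnight in 2% charcoal-stripped FBS, 5,000 cells/well, preincubated 4 h, then compound plus 17beta-estradiol for 18 h at 37C. Beta-lactamase read by LiveBLAzer B/G FRET substrate, 2 h at room temperature.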
# [12] = biological target: Estrogen receptor (Homo sapiens) (UniProt P03372); experiment: qHTS assay to identify small molecule agonists of the estrogen receptor alpha (ER-alpha) signaling pathway (AID 743075; calls by dose curve); conditions: HEK293 ER-alpha-UAS-bla, beta-lactamase FRET ratio, 18 h; activation: at 70.1 µM (top of the series)
# [13] = biological target: Estrogen receptor (Homo sapiens) (UniProt P03372); experiment: qHTS assay to identify small molecule agonists of the estrogen receptor alpha (ER-alpha) signaling pathway using the BG1 cell line (AID 743079); conditions: BG1Luc4E2 cells, ERE-luciferase agonist, 22 h; activation: at 70.3 µM (top of the series) unless noted; further: nearly all actives have a fitted effect of over 20% in size
# [14] = qHTS assay to identify small molecule antagonists of the estrogen receptor alpha (ER-alpha) signaling pathway using the BG1 cell line - cell viability counter screen (AID 743081);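 further: compound given together with 17beta-estradiol as the ER stimulus; nearly all actives have a fitted effect of over 45% in size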
# [15] = qHTS assay to identify small molecule antagonists of the thyroid receptor (TR) signaling pathway - cell viability counter screen (AID 743064); conditions: GH3.TRE-Luc viability, CellTiter-Fluor, 24 h; activity change, negative = cytotoxic: at 70.3 µM (top of the series); further: nearly all actives have a fitted effect of over 50% in size
# Method in brief: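 Viability of T3-stimulated (1 nM final) GH3.TRE-Luc cells is measured by CellTiter-Fluor fluorescence after 23.5 h compound exposure at 37 °C plus 30 min reagent incubation.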
# [16] = qHTS assay to identify small molecule antagonists of the thyroid receptor (TR) signaling pathway (AID 743065); further: nearly all actives have a fitted effect of over 55% in size
# Method in brief: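 GH3.TRE-Luc rat pituitary cells (two TREs driving luciferase) were dosed with compound, then stimulated with 1 nM T3 (final) for 23.5 h at 37 C. ONE-Glo luminescence was the read-out, with CellTiter-Fluor fluorescence as the cytotoxicity counter-screen.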
# [17] = qHTS assay to identify small molecule antagonists of the estrogen receptor alpha (ER-alpha) signaling pathway using the BG1 cell line (AID 743080; calls by dose curve;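 further: BG1 cells stimulated with 17beta-estradiol alongside compound; nearly all actives have a fitted effect of over 25% in size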); conditions: BG1Luc4E2 ERE-luciferase antagonist mode, luminescence; activity change, negative = inhibition: at 70.3 µM (top of the series) unless noted
# Method in brief: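 BG1-Luc-4E2 cells (endogenous full-length ER-alpha, 4xERE luciferase) hormone-starved 5 days in charcoal-stripped FBS, plated 4,000/well for 24 h, then compound plus 17beta-estradiol for 21.5 h at 37 C; ONE-Glo luminescence read.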
# [18] = qHTS assay to identify small molecule that activate the aryl hydrocarbon receptor (AhR) signaling pathway - cell viability counter screen (AID 743086); further: nearly all actives have a fitted effect of over 45% in size
# Method in brief: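 HepG2-AhR-luc (HG2L7.5c1) cells, 4000/well, treated 24 h at 37 C with compound; viability measured as CellTiter-Fluor fluorescence after 30 min in the same wells as the luciferase read.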
# [19] = biological target: Aromatase (Homo sapiens) (UniProt P11511); experiment: qHTS assay to identify aromatase inhibitors (AID 743083); further: nearly all actives have a fitted effect of over 55% in size
# UniProt P11511, sequence (P11511 whole entry, looked up): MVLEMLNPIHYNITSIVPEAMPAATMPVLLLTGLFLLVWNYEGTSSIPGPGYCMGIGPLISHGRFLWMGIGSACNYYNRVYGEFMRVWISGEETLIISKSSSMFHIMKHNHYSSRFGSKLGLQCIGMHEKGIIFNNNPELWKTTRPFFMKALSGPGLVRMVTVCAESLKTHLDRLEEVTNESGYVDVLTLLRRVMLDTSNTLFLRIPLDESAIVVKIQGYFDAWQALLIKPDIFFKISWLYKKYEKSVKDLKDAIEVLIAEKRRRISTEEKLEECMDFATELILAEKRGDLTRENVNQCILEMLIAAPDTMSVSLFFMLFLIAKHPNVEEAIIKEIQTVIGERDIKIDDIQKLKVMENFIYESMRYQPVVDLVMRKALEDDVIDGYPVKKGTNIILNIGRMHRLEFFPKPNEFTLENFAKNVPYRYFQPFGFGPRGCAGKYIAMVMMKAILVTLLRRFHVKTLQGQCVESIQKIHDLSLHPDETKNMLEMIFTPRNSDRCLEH
# [20] = activity change, negative = inhibition: at 58.5 µM (top of the series) unless noted
# Potency means the concentration at half of the fitted maximal effect; tags describe the fitted curve by direction and shape or compound fluorescence and quenching.
smiles,measurement,setting,value
O=C1C2(Cl)C3(Cl)C4(Cl)C(Cl)(Cl)C5(Cl)C3(Cl)C1(Cl)C5(Cl)C24Cl (stereo not drawn),Potency,[1]; [20],active: 23.5 µM
same,Potency,[2],inconclusive: 54 µM [cytotoxic] and inconclusive: 52.6 µM [single point]
same,Potency,[3],"inconclusive: 67.5 µM [cytotoxic, single point] and inconclusive: 73.7 µM [cytotoxic, single point]"
same,Potency,[4],"inconclusive: 14.7 µM [inhibitor, partial curve, poor fit]"
same,Potency,[5],"active: 54 µM and inconclusive: 59.1 µM [cytotoxic, single point]"
same,Potency,[6],active: 26.9 µM and active: 52.2 µM
same,Potency,[7],inconclusive: 60.6 µM [single point] and inconclusive: 52.6 µM
same,Potency,[8],"inconclusive: 60.6 µM [cytotoxic] and inconclusive: 59.1 µM [inhibitor, single point]"
C[C@H]1O[C@@H](O[C@H]2[C@@H](O)C[C@H](O[C@H]3[C@@H](O)C[C@H](O[C@H]4CC[C@@]5(C)[C@H](CC[C@@H]6[C@@H]5CC[C@]5(C)[C@@H](C7=CC(=O)OC7)CC[C@]65O)C4)O[C@@H]3C)O[C@@H]2C)C[C@H](O)[C@@H]1O,Potency,[1]; [20],active: 425 nM and active: 124 nM
same,Potency,[2],"inconclusive: 42.5 nM [activator, single point] and inconclusive: 24.7 nM [activator, full curve]"
same,Potency,[9],"inconclusive: 266 nM [activator, full curve] and inconclusive: 154 nM [activator, partial curve]"
same,Potency,[10],inconclusive: 1.88 µM [inhibitor]
same,Potency,[11],"inconclusive: 1.51 µM [fluorescent, full curve] and inconclusive: 5.53 µM [fluorescent, partial curve, poor fit]"
same,Potency,[5],active: 33.8 nM and active: 19.6 nM
same,Potency,[12],"inconclusive: 268 nM [rising, full curve]"
same,Potency,[13],"inconclusive: 298 nM [inhibitor, full curve] and inconclusive: 173 nM [inhibitor, full curve]"
same,Potency,[14],"inconclusive: 33.5 µM [rising, single point]"
N#CC(C#N)=NNc1cccc(Cl)c1,Potency,[1]; [20],"inconclusive: 0.155 µM [rising, full curve, poor fit]"
same,Potency,[2],inconclusive: 0.49 µM
same,Potency,[10],active: 1.93 µM
same,Potency,[15],active: 3.44 µM
same,Potency,[16],active: 0.969 µM
same,Potency,[4],"inconclusive: 1.22 µM [inhibitor, partial curve, poor fit]"
same,Potency,[11],active: 692 nM [inconclusive]
same,Potency,[5],"inconclusive: 1.38 µM [cytotoxic, full curve]"
same,Potency,[12],"inconclusive: 1230 nM [cytotoxic, full curve]"
same,Potency,[13],"inconclusive: 1.37 µM [inhibitor, full curve]"
same,Potency,[17],active: 2.17 µM
same,Potency,[14],active: 5.45 µM
same,Potency,[18],active: 15.4 µM
same,Potency,[7],"inconclusive: 1.55 µM [inhibitor, full curve]"
same,Potency,[8],"inconclusive: 1.38 µM [rising, full curve]"
CCOC(=O)CC(SP(=S)(OC)OC)C(=O)OCC (stereo not drawn),"activity change, negative = inhibition",[1]; [20],inconclusive: -33.2%
same,"activity change, negative = inhibition",[1]; at 58.5 µM (top of the series),inactive: 13.7%
same,Potency,[2],"inconclusive: 21.9 µM [activator, single point]"
same,Potency,[16],"inconclusive: 68.6 µM [inhibitor, single point]"
same,Potency,[5],"inconclusive: 30.9 µM [rising, partial curve]"
same,Potency,[8],inconclusive: 21.7 µM [inhibitor] and inactive
N#CC(Cl)Cl,Potency,[1]; [20],inconclusive: 60 µM
same,Potency,[2],"inconclusive: 19 µM [activator, partial curve]"
same,Potency,[9],"inconclusive: 8.41 µM [activator, full curve]"
same,Potency,[14],inactive
same,Potency,[19],"inconclusive: 66.8 µM [inhibitor, single point]"
same,Potency,[6],"inconclusive: 33.5 µM [cytotoxic, partial curve]"
same,Potency,[7],"inconclusive: 10.7 µM [activator, partial curve, poor fit]"
same,Potency,[8],"inconclusive: 37.9 µM [rising, partial curve]"
C[C@@H]1O[C@@H](O[C@@H]2C=C3CC[C@@H]4[C@H](CC[C@]5(C)[C@@H](c6ccc(=O)oc6)CC[C@]45O)[C@@]3(C)CC2)[C@H](O)[C@H](O)[C@H]1O,Potency,[1]; [20],"inconclusive: 0.229 µM [rising, full curve, poor fit]"
same,activation,[2],inconclusive: -5.42% [at 29.2 µM]
same,Potency,[9],"inconclusive: 0.018 µM [activator, full curve, poor fit]"
same,Potency,[10],"inconclusive: 0.359 µM [inhibitor, full curve]"
same,Potency,[5],"inconclusive: 0.0102 µM [cytotoxic, full curve]"
same,Potency,[7],"inconclusive: 0.128 µM [rising, full curve]"
same,Potency,[8],"inconclusive: 0.15 µM [fluorescent, full curve]"
